{"source": "the supplement of paper PMC11876631", "proteins": {"B1": {"name": "thiL V95D (protein)", "chain": "MACGEFSLIARYFDRVRSSRLDVELGIGDDCALLNIPEKQTLAISTDTLVAGNHFLPDIDPADLAYKALAVNLSDLAAMGADPAWLTLALTLPDDDEAWLESFSDSLFDLLNYYDMQLIGGDTTRGPLSMTLGIHGFVPMGRALTRSGAKPGDWIYVTGTPGDSAAGLAILQNRLQVADAKDADYLIKRHLRPSPRILQGQALRDLANSAIDLSDGLISDLGHIVKASDCGARIDLALLPFSDALSRHVEPEQALRWALSGGEDYELCFTVPELNRGALDVALGHLGVPFTCIGQMTADIEGLCFIRDGEPVTLDWKGYDHFATP"}, "B2": {"name": "thiL F137W (protein)", "chain": "MACGEFSLIARYFDRVRSSRLDVELGIGDDCALLNIPEKQTLAISTDTLVAGNHFLPDIDPADLAYKALAVNLSDLAAMGADPAWLTLALTLPDVDEAWLESFSDSLFDLLNYYDMQLIGGDTTRGPLSMTLGIHGWVPMGRALTRSGAKPGDWIYVTGTPGDSAAGLAILQNRLQVADAKDADYLIKRHLRPSPRILQGQALRDLANSAIDLSDGLISDLGHIVKASDCGARIDLALLPFSDALSRHVEPEQALRWALSGGEDYELCFTVPELNRGALDVALGHLGVPFTCIGQMTADIEGLCFIRDGEPVTLDWKGYDHFATP"}, "B3": {"name": "thiL F137P (protein)", "chain": "MACGEFSLIARYFDRVRSSRLDVELGIGDDCALLNIPEKQTLAISTDTLVAGNHFLPDIDPADLAYKALAVNLSDLAAMGADPAWLTLALTLPDVDEAWLESFSDSLFDLLNYYDMQLIGGDTTRGPLSMTLGIHGPVPMGRALTRSGAKPGDWIYVTGTPGDSAAGLAILQNRLQVADAKDADYLIKRHLRPSPRILQGQALRDLANSAIDLSDGLISDLGHIVKASDCGARIDLALLPFSDALSRHVEPEQALRWALSGGEDYELCFTVPELNRGALDVALGHLGVPFTCIGQMTADIEGLCFIRDGEPVTLDWKGYDHFATP"}, "B4": {"name": "thiL V95P (protein)", "chain": "MACGEFSLIARYFDRVRSSRLDVELGIGDDCALLNIPEKQTLAISTDTLVAGNHFLPDIDPADLAYKALAVNLSDLAAMGADPAWLTLALTLPDPDEAWLESFSDSLFDLLNYYDMQLIGGDTTRGPLSMTLGIHGFVPMGRALTRSGAKPGDWIYVTGTPGDSAAGLAILQNRLQVADAKDADYLIKRHLRPSPRILQGQALRDLANSAIDLSDGLISDLGHIVKASDCGARIDLALLPFSDALSRHVEPEQALRWALSGGEDYELCFTVPELNRGALDVALGHLGVPFTCIGQMTADIEGLCFIRDGEPVTLDWKGYDHFATP"}, "B5": {"name": "thiL V138Q (protein)", "chain": "MACGEFSLIARYFDRVRSSRLDVELGIGDDCALLNIPEKQTLAISTDTLVAGNHFLPDIDPADLAYKALAVNLSDLAAMGADPAWLTLALTLPDVDEAWLESFSDSLFDLLNYYDMQLIGGDTTRGPLSMTLGIHGFQPMGRALTRSGAKPGDWIYVTGTPGDSAAGLAILQNRLQVADAKDADYLIKRHLRPSPRILQGQALRDLANSAIDLSDGLISDLGHIVKASDCGARIDLALLPFSDALSRHVEPEQALRWALSGGEDYELCFTVPELNRGALDVALGHLGVPFTCIGQMTADIEGLCFIRDGEPVTLDWKGYDHFATP"}, "B6": {"name": "thiL F103W (protein)", "chain": "MACGEFSLIARYFDRVRSSRLDVELGIGDDCALLNIPEKQTLAISTDTLVAGNHFLPDIDPADLAYKALAVNLSDLAAMGADPAWLTLALTLPDVDEAWLESWSDSLFDLLNYYDMQLIGGDTTRGPLSMTLGIHGFVPMGRALTRSGAKPGDWIYVTGTPGDSAAGLAILQNRLQVADAKDADYLIKRHLRPSPRILQGQALRDLANSAIDLSDGLISDLGHIVKASDCGARIDLALLPFSDALSRHVEPEQALRWALSGGEDYELCFTVPELNRGALDVALGHLGVPFTCIGQMTADIEGLCFIRDGEPVTLDWKGYDHFATP"}, "B7": {"name": "thiL V138A (protein)", "chain": "MACGEFSLIARYFDRVRSSRLDVELGIGDDCALLNIPEKQTLAISTDTLVAGNHFLPDIDPADLAYKALAVNLSDLAAMGADPAWLTLALTLPDVDEAWLESFSDSLFDLLNYYDMQLIGGDTTRGPLSMTLGIHGFAPMGRALTRSGAKPGDWIYVTGTPGDSAAGLAILQNRLQVADAKDADYLIKRHLRPSPRILQGQALRDLANSAIDLSDGLISDLGHIVKASDCGARIDLALLPFSDALSRHVEPEQALRWALSGGEDYELCFTVPELNRGALDVALGHLGVPFTCIGQMTADIEGLCFIRDGEPVTLDWKGYDHFATP"}, "B8": {"name": "thiL F137A (protein)", "chain": "MACGEFSLIARYFDRVRSSRLDVELGIGDDCALLNIPEKQTLAISTDTLVAGNHFLPDIDPADLAYKALAVNLSDLAAMGADPAWLTLALTLPDVDEAWLESFSDSLFDLLNYYDMQLIGGDTTRGPLSMTLGIHGAVPMGRALTRSGAKPGDWIYVTGTPGDSAAGLAILQNRLQVADAKDADYLIKRHLRPSPRILQGQALRDLANSAIDLSDGLISDLGHIVKASDCGARIDLALLPFSDALSRHVEPEQALRWALSGGEDYELCFTVPELNRGALDVALGHLGVPFTCIGQMTADIEGLCFIRDGEPVTLDWKGYDHFATP"}, "B9": {"name": "thiL F137Q (protein)", "chain": "MACGEFSLIARYFDRVRSSRLDVELGIGDDCALLNIPEKQTLAISTDTLVAGNHFLPDIDPADLAYKALAVNLSDLAAMGADPAWLTLALTLPDVDEAWLESFSDSLFDLLNYYDMQLIGGDTTRGPLSMTLGIHGQVPMGRALTRSGAKPGDWIYVTGTPGDSAAGLAILQNRLQVADAKDADYLIKRHLRPSPRILQGQALRDLANSAIDLSDGLISDLGHIVKASDCGARIDLALLPFSDALSRHVEPEQALRWALSGGEDYELCFTVPELNRGALDVALGHLGVPFTCIGQMTADIEGLCFIRDGEPVTLDWKGYDHFATP"}, "B10": {"name": "can V81A (protein)", "chain": "MKDIDTLISNNALWSKMLVEEDPGFFEKLAQAQKPRFLWIGCSDSRVPAERLTGLEPGELFVHRNVANLVIHTDLNCLSVAQYAVDVLEVEHIIICGHYGCGGVQAAVENPELGLINNWLLHIRDIWFKHSSLLGEMPQERRLDTLCELNVMEQVYNLGHSTIMQSAWKRGQKVTIHGWAYGIHDGLLRDLDVTATNRETLEQRYRHGISNLKLKHANHK"}, "B11": {"name": "accD V121D (protein)", "chain": "MSWIERIKSNITPTRKASIPEGVWTKCDSCGQVLYRAELERNLEVCPKCDHHMRMTARNRLHSLLDEGSLVELGSELEPKDVLKFRDSKKYKDRLASAQKETGEKDALVVMKGTLYGMPVDAAAFEFAFMGGSMGSVVGARFVRAVEQALEDNCPLICFSASGGARMQEALMSLMQMAKTSAALAKMQERGLPYISVLTDPTMGGVSASFAMLGDLNIAEPKALIGFAGPRVIEQTVREKLPPGFQRSEFLIEKGAIDMIVRRPEMRLKLASILAKLMNLPAPNPEAPREGVVVPPVPDQEPEA"}, "B12": {"name": "thrS L78A (protein)", "chain": "MPVITLPDGSQRHYDHAVSPMDVALDIGPGLAKACIAGRVNGELVDACDLIENDAQLSIITAKDEEGLEIIRHSCAHALGHAIKQLWPHTKMAIGPVIDNGFYYDVDLDRTLTQEDVEALEKRMHELAEKNYDVIKKKVSWHEARETFANRGESYKVSILDENIAHDDKPGLYFHEEYVDMCRGPHVPNMRFCHHFKLMKTAGAYWRGDSNNKMLQRIYGTAWADKKALNAYLQRLEEAAKRDHRKIGKQLDLYHMQEEAPGMVFWHNDGWTIFRELEVFVRSKLKEYQYQEVKGPFMMDRVLWEKTGHWDNYKDAMFTTSSENREYCIKPMNCPGHVQIFNQGLKSYRDLPLRMAEFGSCHRNEPSGSLHGLMRVRGFTQDDAHIFCTEEQIRDEVNGCIRLVYDMYSTFGFEKIVVKLSTRPEKRIGSDEMWDRAEADLAVALEENNIPFEYQLGEGAFYGPKIEFTLYDCLDRAWQCGTVQLDFSLPSRLSASYVGEDNERKVPVMIHRAILGSMERFIGILTEEFAGFFPTWLAPVQVVIMNITDSQSEYVNELTQKLSNAGIRVKADLRNEKIGFKIREHTLRRVPYMLVCGDKEVESGKVAVRTRRGKDLGSMDVNEVIEKLQQEIRSRSLKQLEE"}, "B13": {"name": "thrS L79A (protein)", "chain": "MPVITLPDGSQRHYDHAVSPMDVALDIGPGLAKACIAGRVNGELVDACDLIENDAQLSIITAKDEEGLEIIRHSCAHLAGHAIKQLWPHTKMAIGPVIDNGFYYDVDLDRTLTQEDVEALEKRMHELAEKNYDVIKKKVSWHEARETFANRGESYKVSILDENIAHDDKPGLYFHEEYVDMCRGPHVPNMRFCHHFKLMKTAGAYWRGDSNNKMLQRIYGTAWADKKALNAYLQRLEEAAKRDHRKIGKQLDLYHMQEEAPGMVFWHNDGWTIFRELEVFVRSKLKEYQYQEVKGPFMMDRVLWEKTGHWDNYKDAMFTTSSENREYCIKPMNCPGHVQIFNQGLKSYRDLPLRMAEFGSCHRNEPSGSLHGLMRVRGFTQDDAHIFCTEEQIRDEVNGCIRLVYDMYSTFGFEKIVVKLSTRPEKRIGSDEMWDRAEADLAVALEENNIPFEYQLGEGAFYGPKIEFTLYDCLDRAWQCGTVQLDFSLPSRLSASYVGEDNERKVPVMIHRAILGSMERFIGILTEEFAGFFPTWLAPVQVVIMNITDSQSEYVNELTQKLSNAGIRVKADLRNEKIGFKIREHTLRRVPYMLVCGDKEVESGKVAVRTRRGKDLGSMDVNEVIEKLQQEIRSRSLKQLEE"}}, "note": "± gives the standard deviation of the averaged measurements. Laboratory Escherichia coli strains with one amino-acid change in an essential protein, pooled on minimal glucose agar with carbenicillin or gentamicin at twice the control MIC (plus kanamycin and chloramphenicol for the plasmids), 48 h. Fold change of barcode share against drug-free plates; higher = less susceptible. Active = above 20 in both replicates (the paper's putatively resistant). '<' = one read or none on drug, '>' = one read or none on a drug-free plate. Shares are relative, so most strains fall below 1 when a few take over. Listed are strains with at least 15 reads on both drug-free plates, and hits; most hits rest on fewer reference reads. Replicate rank correlation about 0.5. Edits are read from barcodes.", "data": [{"molecular_target": "Escherichia coli (laboratory strain)", "assay": "barcode share on antibiotic plates over drug-free plates; higher = less susceptible", "settings": "antibiotic: carbenicillin; 2× MIC (3.1 µg/mL)", "experimental": "(§1)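 A pool of E. coli strains, each edited to carry one amino-acid change in an essential protein, was grown for 48 h on minimal glucose agar with or without antibiotic; strain barcodes were sequenced; mean of two replicates.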", "values": [{"protein": "B1", "fold change of barcode share": "0.881 ± 0.091"}, {"protein": "B2", "fold change of barcode share": "0.298 ± 0.12"}, {"protein": "B3", "fold change of barcode share": "0.461 ± 0.046"}, {"protein": "B4", "fold change of barcode share": "0.581 ± 0.037"}, {"protein": "B5", "fold change of barcode share": "0.282 ± 0.19"}, {"protein": "B6", "fold change of barcode share": "0.286 ± 0.16"}, {"protein": "B7", "fold change of barcode share": "0.449 ± 0.3"}, {"protein": "B8", "fold change of barcode share": "1.76 ± 0.49"}, {"protein": "B9", "fold change of barcode share": "0.266 ± 0.043"}, {"protein": "B10", "fold change of barcode share": "0.272 ± 0.02"}, {"protein": "B11", "fold change of barcode share": "0.546 ± 0.18"}, {"protein": "B12", "fold change of barcode share": "0.343 ± 0.038"}, {"protein": "B13", "fold change of barcode share": "0.348 ± 0.028"}]}, {"molecular_target": "Escherichia coli (laboratory strain)", "assay": "barcode share on antibiotic plates over drug-free plates; higher = less susceptible", "settings": "antibiotic: gentamicin; 2× MIC (MIC 0.45 µg/mL)", "experimental": "as §1", "values": [{"protein": "B1", "fold change of barcode share": "0.0126 ± 0.0053"}, {"protein": "B2", "fold change of barcode share": "0.0118 ± 0.0096"}, {"protein": "B3", "fold change of barcode share": "< 0.00405"}, {"protein": "B4", "fold change of barcode share": "0.0169 ± 0.0013"}, {"protein": "B5", "fold change of barcode share": "< 0.00883"}, {"protein": "B6", "fold change of barcode share": "< 0.0159"}, {"protein": "B7", "fold change of barcode share": "0.0059 ± 0.004"}, {"protein": "B8", "fold change of barcode share": "< 0.00311"}, {"protein": "B9", "fold change of barcode share": "0.0122 ± 0.013"}, {"protein": "B10", "fold change of barcode share": "0.00395 ± 0.0026"}, {"protein": "B11", "fold change of barcode share": "< 0.00758"}, {"protein": "B12", "fold change of barcode share": "0.0131 ± 0.013"}, {"protein": "B13", "fold change of barcode share": "0.00602 ± 0.0039"}]}]}
